# From the supplement of paper PMC11417369
# The other results are listed elsewhere or left out.
# System: PfSIP2 AP2 domain 1 (GST-tagged)
# Experiment: gcPBM binding intensity (ln(normalized median fluorescence intensity)); higher = stronger DNA binding
# How it was run: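 Probes on an Agilent 4 × 180k array were primer-extended, double-stranded and 36 bp long, taken from intergenic genomic regions, with negative controls added. GST-tagged P. falciparum DNA-binding domains from E. coli, about 25 μg on average, were applied to the array for 1 h in 1× PBS containing 1% milk, 0.2 mg/ml BSA, 0.5% salmon testes DNA and 0.03% Triton X-100. Binding intensity, obtained after Alexa488 anti-GST antibody detection and a 488 nm scan, is the highest Masliner-normalised natural-log median intensity across replicate spots of either probe orientation.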
row,Sequence,gcPBM binding intensity (ln)
1,ATATTATTTATAAGTTGTACGGTATAATATAATATA [XGTACX_site5371],7.07
2,AAAAAATATATATTAACACACACACTAATAAAAAAA [CACACA_site8366],6.96
3,AAAATTTTTTACTTTACACACATTTTGTATATTTTG [CACACA_site1730],6.92
4,GTTCAAAATATGAACACACACATATATATATATATA [CACACA_site2057],9.37
5,ATCTACATATATTATTGTACATTGTTAAAAATTTAT [XGTACX_site7769],7.04
6,TTTCGTAATATGCGTGTGCACAATGAGTCCATATCT,8.8
7,TTTTTTTTTTTTTGGGGTACATTTTAATTAATATTA [XGTACX_site4866],7.11
8,TAAAATATAATTAGCACACATATATAAAATATATAT [CACACA_site4093],6.85
9,ATATATTGTATGTGCTCACACATGTTTCGATATTAT [CACACA_site4336],6.98
10,GTTGTTTCTATAAATTGTACTTAAATATAATTATAT [XGTACX_site585],7.62
11,GTAAATATGTTTATTAGTACACATATGAAAATAAAT [XGTACX_site5820],7.22
12,TAGAAACTATGTAATGCACACCAAAATAAAATTATT [CACACA_site8578],8.06
13,TTTTGGATACTTCATTTGTCCTGTTTTTTTTTTTTA [CACACA_negctrl_site399],6.7
14,TTTTAAAAAATAAAATATTATTGAAGTAAAATATGA [CACACA_negctrl_site758],6.98
15,AAAATATATCAAAACACACTCACATATAATACTTAC [CACACA_site6031],6.98
16,TATATACTTATATACTGTACTCATCATCTTTTAAAG [XGTACX_site6099],6.98
17,TAATATATCTATAATACACACTATTCTAATCACATA [CACACA_site6731],6.95
18,TTTTTTTTTTTTTAAACATGCAAAATATATAATTTT [TGCATGCA_site633],7.11
19,AACACACACATATATATATATATATATATATATATA [GTGCAC_negctrl_site573],9.64
20,TTTTTAATATTGTATGCATGTCGTAATAAAAAATTT [TGCATGCA_site259],7.17
21,ATAATAAACATATATGTACACACATATACATATATA [CACACA_site8924],7.19
22,TTGAACCCCACTAACACACACACGCACGCTCAGAAA [CACACA_site2983],6.96
23,ATATTAATTATAACTTGTACGTAAAAGGAAAACAAT [XGTACX_site3269],7.35
24,TGCTATTTCATATTCTGTACTAAAACAAGATAATAA [XGTACX_site3852],7.47
25,ATATATATATATAGAAGTACTCTTATATATTTTATA [XGTACX_site1384],9.26
